From PubChem BioAssay AID463173 (ICCB-Longwood Screening Facility, Harvard Medical School, 2010)
Among all 52,000 compounds or so, about 4,300 (8.3%) were called active. Cut-off read from the data, not from the text of the source: active = survival mostly below about 52% (no sharp cut-off); inactive = mostly above about 56%. The list shows a part of the results.

The molecules below were run on DeltatarO mutant (assay: growth inhibition of S. aureus wild type versus tarO mutant, primary screen, teichoic acid synthesis inhibitors, RN4220, OD600 (AID 463173)). Conditions: OD600, 18 h, stronger effect = lower value, screened at 18.75 µg/mL (by protocol).

SMILES	survival
COc1cccc(-c2ccnc3c(-c4ccc(F)cc4)c(C)nn23)c1	inactive: 93%
Cc1ccc(Oc2nc3c(c(=O)n(Cc4ccccc4)c(=O)n3C)n2C)cc1C	inactive: 44%
Cc1oc2ncnc(N3CCOCC3)c2c1C(=O)N1CCN(c2cccc(C(F)(F)F)c2)CC1	active: -5%
CCN(C(=O)C1CCC(CNS(=O)(=O)c2cccc3nsnc23)CC1)c1cccc(C)c1 (stereo unspecified)	inactive: 96%
CCN(C(=O)C1CCC(CNS(=O)(=O)c2cccc3nsnc23)CC1)c1ccccc1 (stereo unspecified)	inactive: 63%
CC1(C)CC(=O)c2cc(C(=O)Nc3ccc(Br)cc3)c(=O)[nH]c2C1	inactive: 70%
COc1ccc(NC(=O)C2=C(C)Nc3ncnn3C2c2ccc(C)o2)cc1 (stereo unspecified)	inactive: 96%
O=C(CCCc1ccccc1)Nc1ncn[nH]1	inactive: 99%
O=C(Cc1ccc(NC(=O)N2CCSc3ncccc32)cc1)NCc1ccccc1	inactive: 84%
Cc1cc(C)cc(NC(=O)Cn2c(=O)n(C(C)C)c(=O)c3oc4ccccc4c32)c1	inactive: 48%
COc1ccc(C2=NN(S(C)(=O)=O)C(c3cn(-c4ccccc4)nc3-c3cccs3)C2)cc1 (stereo unspecified)	inactive: 169%
C#CCN1C(=O)C(O)(CC(=O)c2ccc(OC)c(OC)c2)c2cc(Br)ccc21 (stereo unspecified)	inactive: 78%
Cc1ccc(CN2C(=O)c3ccccc3Sc3ccc(C(=O)NCc4ccco4)cc32)cc1	inactive: 81%
COc1ccc(-n2nc(C(=O)Nc3ccc(Br)cc3C)c3c4ccccc4n(C)c3c2=O)cc1	inactive: 97%
COc1ccc(C(=O)N2CC(=O)Nc3ccc(C)cc3C2c2ccccc2)cc1OC (stereo unspecified)	inactive: 61%
CCOc1ccc(C2C=C(c3cccc(OC)c3)Nc3nnnn32)cc1 (stereo unspecified)	active: 45%
COc1ccc(N=Cc2ccc(Br)s2)cc1	inactive: 98%
O=C(COc1ccccc1)NCC(c1cccs1)S(=O)(=O)c1ccc(Cl)cc1 (stereo unspecified)	inactive: 72%
CC(C)(C)c1ccc(C(=O)NNc2ncnc3c2cnn3-c2ccccc2)cc1	inactive: 115%
CCN(C(=O)Cn1c(SCC(=O)Nc2ccc(OC)cc2)nc2ccccc21)c1cccc(C)c1	inactive: 130%
COc1cccc(C(=O)Nc2ccc(-n3nncc3-c3ccc(Br)cc3)cc2)c1OC	inactive: 100%
COc1ccc(OCC(=O)N2CCN(C(=O)c3cc(OC)c(OC)c(OC)c3)CC2)cc1	inactive: 80%
COc1ccc(/C=C/C(=O)N2CCC(c3nc4ccccc4o3)CC2)cc1OC	inactive: 86%

SMILES	survival
CCOc1ccccc1NC(=O)N(C)CCc1c(C)nn(CC)c1C	inactive: 120%
Cc1ccc(NC(=O)c2ccc(=O)n(CC(=O)Nc3c(C)cc(C)cc3C)n2)cc1	inactive: 73%
Cc1ccc(COc2ccc3oc(-c4ccccc4)c(C(=O)O)c3c2)cc1	active: 34%
CCCC12CN3CC(C)(CN(C1)C3c1ccccc1Cl)C2=O (stereo unspecified)	inactive: 138%
CCNC(=O)c1c(NC(=O)COc2ccc(F)cc2)sc2c1CCCC2	inactive: 59%
O=C(Nc1ccc(Br)cc1)N1CCC(CN2CCCC2)CC1	inactive: 91%
O=C(NC1CCCC1)C(c1ccccc1)N(Cc1cccs1)C(=O)Cn1nnc2ccccc21 (stereo unspecified)	inactive: 65%
CCOc1ccc(C2C(C(=O)Nc3ccc(OC)cc3)=C(C)Nc3nc(SCc4ccc(Cl)cc4)nn32)cc1 (stereo unspecified)	inactive: 112%
COc1ccc(NC(=O)CSc2c3c(nc4ccc(Cl)cc24)CCCC3)cc1Cl	inactive: 55%
COc1ccc(N2CCN(CCCNC(=O)c3ccc4nc(CCc5ccccc5)oc4c3)CC2)cc1	inactive: 89%
Cc1ccccc1NC(=O)CS(=O)(=O)c1cccc2nsnc12	inactive: 80%
Cc1c(Cl)cccc1NC(=O)c1ccc(NC(=O)N2CCSc3ncccc32)cc1	inactive: 72%
Cc1cnc(NC(=O)C(C)N2CCN(C)CC2)s1 (stereo unspecified)	inactive: 98%
Cc1cccc(Nc2nc(C)nc(N)c2S(=O)(=O)c2ccccc2)c1	inactive: 88%
Cc1c(C2=CCN(S(=O)(=O)c3ccc(Br)cc3)CC2)c2ccccc2n1CC(=O)N1CCCC1	inactive: 59%
Cc1cc(C)cc(NS(=O)(=O)c2ccc3c(c2)OCC(C(=O)N2CCCC2)O3)c1 (stereo unspecified)	inactive: 88%
COc1ccc2nc3oc(C(=O)Nc4cccc(C(F)(F)F)c4)cc3cc2c1	inactive: 84%
Cc1ccc2nc(-c3ccc(C)c(NC(=O)Cc4ccccc4)c3)oc2c1	inactive: 77%
CN(C(=O)Cn1nc(C(F)(F)F)c2c1CCC2)C1CCCCC1	inactive: 70%
Cc1nc(Oc2ccccc2C)c2oc3ccccc3c2n1	inactive: 101%
Cc1ccc(CNC(=O)c2sc3nc4n(c(=O)c3c2C)CCCC4)cc1	inactive: 80%
COc1ccc2c(c1)CC(C(=O)NCCN1CCN(c3cccc(Cl)c3)CC1)CO2 (stereo unspecified)	inactive: 86%
CCCc1ccc(OCC(=O)Nc2scc(-c3cccs3)c2C(=O)OC)cc1	inactive: 67%

SMILES	survival
O=C(c1ccc2c(c1)N(Cc1ccc(F)cc1)CCS2)N1CCN(c2ccccc2)CC1	inactive: 74%
Cc1cc(C)c(NC(=O)c2ccc3nc(C(C)C)oc3c2)c(C)c1	inactive: 94%
CCOCCn1c(=NC(=O)c2ccc3c(c2)OCCO3)sc2cc(OCC)ccc21	inactive: 88%
COCC(C)NC(=O)C1=CC(c2ccc3c(c2)OCO3)=NS(=O)(=O)N1C (stereo unspecified)	inactive: 104%
Cc1ccc(Cl)cc1N1CCN(C(=O)c2cnc3c(-c4ccc(F)cc4)c(C)nn3c2C)CC1	inactive: 89%
O=C(Nc1ccccc1C(F)(F)F)C1CCN(c2nnc(-n3cccc3)s2)CC1	inactive: 89%
CCC(C(=O)NC1CCCCC1)n1nc(C)c2sc3ccccc3c2c1=O (stereo unspecified)	inactive: 78%
CCN(CC)S(=O)(=O)c1ccc2c(c1)c(=O)c(C(=O)N1CCN(c3cc(C)ccc3C)CC1)cn2C	inactive: 71%
O=C(Cn1cc(SCc2ccc(F)cc2)c2ccccc21)N1CCCC1	inactive: 53%
CCc1nnc(NC(=O)c2nc(SCc3ccc(F)cc3)ncc2Cl)s1	active: 29%
CCC(c1nnnn1CC1CCCO1)N(Cc1ccc2c(c1)OCO2)Cc1cc2cc(C)cc(C)c2[nH]c1=O (stereo unspecified)	inactive: 65%
O=C(OCC1CCCO1)c1ccc2c(c1)N(Cc1c(F)cccc1Cl)C(=O)c1ccccc1S2(=O)=O (stereo unspecified)	inactive: 67%
Cn1ccc2c(OCC(=O)NCc3ccc(F)cc3)cccc2c1=O	inactive: 91%
Cc1ccc(C(=O)c2cn(Cc3ccccc3)c3cc4c(cc3c2=O)OCCO4)cc1	inactive: 105%
CCc1cccc(NC(=O)CSc2nccn2C)c1	inactive: 70%
COc1c(Cl)cc(Cl)cc1C(=O)Nc1cccc2cccnc12	inactive: 143%
NC(=O)C1CCN(c2nc(C3CC3)nc3c2nnn3Cc2ccccc2Cl)CC1	inactive: 97%
NNc1nc2ccccc2c(=O)n1Cc1ccccc1	inactive: 100%
COc1ccc(NCc2cccn2-c2nnc(N3CCC(C)CC3)s2)c(OC)c1	inactive: 73%
Cc1cccc(-c2nc(S(=O)(=O)c3ccccc3)c(N3CCN(c4ccccc4)CC3)o2)c1	inactive: 112%
CSc1ccc(-c2nc3cc(C)ccn3c2Nc2ccc(C)cc2)cc1	inactive: 95%
O=C(CSc1nc2c(c(=O)[nH]1)CCC2)Nc1cc(C(F)(F)F)ccc1Cl	inactive: 76%
CCc1ccc(NC(=O)C(=O)NCCc2sc(-c3ccc(C)cc3)nc2C)cc1	inactive: 81%

SMILES	survival
CCCCCOc1ccccc1Cn1c(=O)oc2ccc(C)cc21	active: 5%
Cc1ccc(Nc2c(-c3ccc(N4CCOCC4)cc3)nc3ncccn23)c(C)c1	inactive: 80%
COCCNC(=O)CCSc1nc(-c2ccc(OC)cc2)cc(C(F)(F)F)n1	inactive: 76%
Cc1nn(C(C)C(=O)Nc2cccc(F)c2)c(=O)c2c1sc1ccccc12 (stereo unspecified)	inactive: 108%
O=C(CCN1CCOCC1)Nc1ccc(Cl)cc1	inactive: 100%
Cc1cccc(Cn2c(CNC(=O)c3ccccc3)nc3ccccc32)c1	inactive: 64%
CC(C)OCCCNC(=O)c1c2c(nc3ccccc13)C(=O)N(C1CCCCC1)C2	active: 25%
Cc1ccn2c(Nc3ccc(C(C)C)cc3)c(-c3ccsc3)nc2c1	inactive: 94%
CC(=O)c1ccc(NC(=O)CSc2nnc(NC(=O)NC3CCCCC3)s2)cc1	inactive: 73%
CCOC(=O)c1cc(-c2ccccc2)n(CC(=O)Nc2cc(Cl)c(OC)cc2OC)c1C	inactive: 118%
C=CCn1c(SCC(N)=O)nnc1-c1ccccc1O	inactive: 98%
Cc1cc(C)cc(Nc2ncnc3sc4c(c23)CCCC4)c1	active: 0%
Cc1cc(C)c(NC(=O)Nc2sc3nc4n(c(=O)c3c2C)CCC(C)CC4)c(C)c1 (stereo unspecified)	inactive: 69%
Cc1cc(C)c(NS(=O)(=O)c2ccc3c(c2)NC(=O)CCS3)c(C)c1	inactive: 76%
O=C(COc1ccc(Cl)cc1)N(Cc1ccco1)c1ccccn1	inactive: 61%
CC1CCCN(Cc2c(O)ccc3c(=O)c(-c4ccccc4Cl)c(C(F)(F)F)oc23)C1 (stereo unspecified)	active: 43%
O=C(NC1CCCC1)c1ccc(CSc2nc3cccnc3n2Cc2ccccc2F)cc1	active: 37%
Cc1ccccc1Nc1ncccc1C(=O)N1CCOCC1	inactive: 82%
O=C(Cn1c(-c2cccs2)cc2ccccc21)NCCCN1CCN(c2ccc(F)cc2)CC1	inactive: 107%
Cc1cc(C)n(CC(=O)Nc2nc(-c3ccccc3)cs2)n1	inactive: 72%
CCOC(=O)c1cnn2c(C(F)(F)F)cc(-c3ccc(Br)cc3)nc12	inactive: 102%
COc1ccc(-c2cnc(C)o2)cc1S(=O)(=O)Nc1cccc(C(F)(F)F)c1	inactive: 80%
